Whole data set: some 33,000 sequences, median “E-score (-0.5 to 0.5)” near -0.054, cut for the highest 2% near 0.35. Some of the results follow.
molecular target: T1, Stb5 (UniProt P38699); assay: PBM E-score (8-mer binding enrichment) (E-score (-0.5 to 0.5)); higher = stronger / more preferred TF binding; most listed sequences are background and not binding sites; details: protein concentration: 200 nM; construct: GST-full length
T1 sequence: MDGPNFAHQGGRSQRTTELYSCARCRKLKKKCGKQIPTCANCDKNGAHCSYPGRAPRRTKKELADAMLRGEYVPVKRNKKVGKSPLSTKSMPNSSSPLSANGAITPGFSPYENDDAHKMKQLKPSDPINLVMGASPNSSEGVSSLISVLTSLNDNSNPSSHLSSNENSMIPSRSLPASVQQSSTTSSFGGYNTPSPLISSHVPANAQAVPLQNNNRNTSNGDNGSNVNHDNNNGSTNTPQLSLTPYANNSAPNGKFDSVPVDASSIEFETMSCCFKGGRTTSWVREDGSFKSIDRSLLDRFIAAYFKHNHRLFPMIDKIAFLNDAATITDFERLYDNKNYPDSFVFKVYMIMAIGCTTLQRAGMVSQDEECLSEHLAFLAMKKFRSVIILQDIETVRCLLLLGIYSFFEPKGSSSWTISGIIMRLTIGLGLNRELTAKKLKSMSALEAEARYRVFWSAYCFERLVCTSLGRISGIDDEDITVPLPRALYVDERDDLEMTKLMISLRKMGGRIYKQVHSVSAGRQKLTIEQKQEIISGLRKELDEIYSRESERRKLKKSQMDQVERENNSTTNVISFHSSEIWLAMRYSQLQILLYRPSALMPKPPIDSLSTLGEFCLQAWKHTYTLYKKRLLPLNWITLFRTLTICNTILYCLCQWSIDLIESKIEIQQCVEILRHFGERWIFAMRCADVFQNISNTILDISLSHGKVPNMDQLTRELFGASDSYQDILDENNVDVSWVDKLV
Experimental: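 Universal 'all 10-mer' protein binding microarrays (Agilent AMADID 015681) probed with GST-tagged S. cerevisiae TFs (full-length or DBD) made by in vitro transcription/translation (PURExpress), about 100-200 nM. Bound TF was detected with fluorescent anti-GST. Each ungapped 8-mer (which stands for itself and its reverse complement) is scored by the PBM enrichment score (E-score), a modified Wilcoxon-Mann-Whitney statistic from -0.5 to +0.5, computed with the Universal PBM Analysis Suite. Scale: above 0.35 generally sequence-specific binding.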

Sequence	PBM E-score
ATGTTGGA	0.0314
AAAAAACT	0.0529
ATGTCTAC	-0.103
GATACATC	-0.00646
GGTTTTCA	0.171
GCTTTCCA	0.0377
AGGGGAAC	-0.331
ACTTTAGC	-0.062
AAGATGCC	-0.016
CTCCAAAG	-0.0428
AGGTATGG	-0.118
CATAAACC	0.019
CCTACTCG	-0.0928
CCAACCGA	-0.13
AGGCCCCA	-0.255
GATGCAGA	-0.221
CCTGAACG	0.0457
CTAACGAG	-0.138
ACACACAA	-0.217
CCGGTTCG	0.184
CGAGGACC	-0.0299
AGCTGAGG	-0.229
CGAGCGCC	0.168
ACCCCTAA	-0.0841
ACAAACGT	-0.218

Sequence	PBM E-score
ACAAAGGT	-0.139
ACGAGCGT	-0.163
CGTCTGGA	-0.122
AGCCATGC	-0.206
AACTTAGA	-0.0598
AGATGGGG	-0.217
GGATCCTA	-0.0341
CTCGCGGA	0.252
CCATCCAG	-0.234
GACATTGA	-0.0778
AAATAGCA	0.0649
ATTTCCAA	-0.0723
AGCTTTAT	-0.232
CACTAGAC	-0.127
AGCTCACA	-0.322
ATAGTGCA	-0.126
ACTGCTAA	-0.155
ATTCCACA	-0.0806
AAAGTCTA	-0.0313
GAGAACAA	-0.0871
ACTGACGC	-0.137
CACCTTCC	-0.0751
TGCTGCCA	-0.225
CCCATCAA	-0.159
GTATAGGA	-0.248

Sequence	PBM E-score
AAGTTCCC	0.113
GCCCCAGC	-0.0607
AGGACTTG	-0.344
GCGAAGGA	-0.148
TAAGGTCA	-0.211
AATCGGCG	0.28
CCATAAGG	-0.265
ACGTCGCT	-0.111
CACTGCAA	-0.139
GGTTCCAC	-0.012
CGCCCGGA	0.18
CAGTCTAG	-0.165
AGTTTCCG	0.152
ATTGGGCA	-0.182
ACGGCCCA	0.152
ATCGCTGG	-0.131
CTAGGTCA	-0.117
ACGTAGAA	-0.0911
ATCATCTC	-0.2
TGAATCAA	-0.109
AAACACCA	0.0372
GTTCAACA	-0.174
AGGGCCCA	-0.113
ACCCATCA	-0.234
AACTGGCT	-0.213

Sequence	PBM E-score
AGAGCGGG	0.339
CGAAGGCC	0.118
GATAAGGC	0.106
AAAAGGCG	-0.12
CCTAATCC	0.0083
AATAAATC	0.0317
GAGTTGAA	0.0747
CTTCCCGC	0.129
CATACGAA	-0.126
GTCCCCTA	-0.202
AGTGAACT	-0.0869
CCCCTTCC	-0.056
ATTCACAA	-0.0544
ACTAAAGG	-0.167
GAATGGGC	-0.139
CGCACGCG	0.166
CAGAGCAC	0.0306
GATCTGGC	-0.0212
GGGGGCAC	-0.00892
ATCGGTGG	0.276
ATCCGATG	0.14
AAGCAAGG	-0.0494
AACCTCAG	-0.1
TACCAGGA	-0.0161
TAAAGTCA	-0.115

Sequence	PBM E-score
ATGTAGCA	-0.158
TTAGTGAA	-0.0571
ACTATATG	0.0513
CAAGGCCC	0.153
AGAATCGG	0.327
CAAAAGAC	0.116
GATGCCCA	-0.136
GAGGATGC	-0.0838
TATTGCAA	0.165
CGCAAAAG	0.0208
CGTACCTA	-0.106
CGACTCAC	-0.0748
CATATCCC	0.052
GGAAGCAC	0.115
AGGGGAAT	-0.0223
CTAGAGAA	-0.205
CTTAGAGA	-0.194
ATACGTGG	-0.0504
CGTAGAAG	-0.162
GGTTTGAC	0.171
TAAATCCA	-0.261
ACTACGAC	-0.0432
ATATCTGG	-0.00824
CTTCATTC	0.0146
CTCCGCAG	0.276

Sequence	PBM E-score
GCATATAA	0.0536
CTCGCTCA	-0.0928
CACATTGC	-0.113
ATCGGATA	0.19
CTGCCTTA	-0.107
CGTGATCC	-0.11
CTGGCGCC	0.025
CACCCTAC	-0.249
CGGGGAGA	0.297
CCCTAAAG	-0.0233
CTGAGCTC	-0.0512
CACTGATC	-0.102
CGCCCTTA	0.168
CCTGAAAC	0.0229
CGGCATGA	0.367
AGGGTGAA	-0.0403
CATATTCA	-0.0475
CTTTACCC	0.0663
CTGCGTGC	-0.00084
CCCTGCTC	-0.237
GGAGACCA	-0.0627
CTCTAGGC	-0.18
CCGGACGG	0.26
GGAAGGGA	-0.006
ACGGCCGC	0.267

Sequence	PBM E-score
AGAAGGGA	-0.109
GGAGGTTA	0.206
AAACAACT	-0.0584
AAAGAGGA	-0.209
GTATATCA	0.0874
GCCGAGCA	-0.021
AAATTAGC	-0.0283
CGGTCAGC	-0.0527
CACCTCCC	-0.0939
TTCTGAAA	-0.123
ATACTGTA	-0.0517
CATTTGCC	-0.00201
ACAACCGG	0.227
GACGTCTA	-0.0803
CGAGTACC	0.106
AGGCGCAC	-0.212
AATGATAC	-0.11
CACTTCAA	-0.0887
ACCATAGG	-0.107
CGAAGTCG	0.0352
AATAAAAA	0.0858
GAGTTAGA	0.167
